This passage reports activity change, negative = inhibition results from PubChem BioAssay AID1745853 (National Center for Advancing Translational Sciences (NCATS), 2022).

What all share (experiment): Primary Screen for Target Class Profiling of Small Molecule Inhibitors of Methyltransferases
For assay [1], the target named is Glycine N-methyltransferase (Homo sapiens) (UniProt Q14749). As to conditions: purified enzyme, MTase-Glo SAH luminescence; measured here: GNMT inhibition; at 40 µM; stronger effect = lower value. The essentials:
(§1)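 Each enzyme was reacted with SAM and its substrate, with compounds tested once at 40 uM; SAH formed was read by MTase-Glo luminescence.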

Assay [2] has as its target Guanidinoacetate N-methyltransferase (Homo sapiens) (UniProt Q14353). As to conditions: purified enzyme, MTase-Glo SAH luminescence; measured here: GAMT inhibition; at 40 µM; stronger effect = lower value. The essentials: as §1
The target of assay [3] is Histamine N-methyltransferase (Homo sapiens) (UniProt P50135). The note with it: purified enzyme, MTase-Glo SAH luminescence; measured here: HNMT inhibition; at 40 µM; stronger effect = lower value. The method in brief: as §1
In assay [4] the target is Nicotinamide N-methyltransferase (Homo sapiens) (UniProt P40261). The note with it: purified enzyme, MTase-Glo SAH luminescence; measured here: NNMT inhibition; at 40 µM; stronger effect = lower value. The essentials: as §1
The target in assay [5] is Phenylethanolamine N-methyltransferase (Homo sapiens) (UniProt P11086). The note with it: purified enzyme, MTase-Glo SAH luminescence; measured here: PNMT inhibition; at 40 µM; stronger effect = lower value. The method in brief: as §1

SMILES strings stand for the structures. The list shows a part of the results. Shown are side measurements of this screen, not its main read-out; they come without a call.
% is set by controls: 0 for no effect and ±100 for the full control effect.

Turning to `CCCn1c(=O)c2ccc(C(=O)NCC(C)C)cc2n2c(=O)n(CC(=O)N(C)c3ccc(F)cc3)nc12`, the activity change, negative = inhibition in assay [1] came to 5.38%; in assay [2], 0%; in assay [3], 4.18%; in assay [4] it was 5.97%; in assay [5], 5.37%.

On to `C[C@@H]1CN(C2(C(=O)NCc3n[nH]c4c3CCC4)Cc3ccccc3C2)C[C@H](C)O1`, for which the activity change, negative = inhibition in assay [1] is -3.67%; in assay [2] it was -11%; in assay [3], -5.34%; in assay [4], -13.9%; in assay [5], -11.4%.

As to `COc1ccc(CCN2C(=O)c3ccccc3CC2(C)C(=O)NC2CCC(C)CC2)cc1OC` (stereo not given), the activity change, negative = inhibition was -9.48% in assay [1]; 2.7% in assay [2]; -2.31% in assay [3]; -1.5% in assay [4]; -8.16% in assay [5].

Take `CCCn1c(=O)[nH]c(=O)c2[nH]cnc21`: the activity change, negative = inhibition was -1.62% in assay [1]; 11.1% in assay [2]; 6.19% in assay [3]; -3.35% in assay [4]; 3.43% in assay [5].

Turning to `COC(=O)c1ccc(COc2cc3oc(=O)cc(-c4ccccc4)c3cc2Cl)cc1`, the activity change, negative = inhibition in assay [1] is -5.1%; in assay [2], 3.06%; in assay [3], -1.03%; in assay [4] it was 2.46%; in assay [5], -7.04%.

Take `C[C@@H]1O[C@@H](O[C@@H]2CO[C@@H](O[C@H]3CC[C@@]4(C)C(CC[C@]5(C)C4CC=C4[C@@H]6CC(C)(C)CC[C@]6(C(=O)O[C@@H]6O[C@H](CO)[C@@H](O)[C@H](O)[C@H]6O)CC[C@]45C)[C@]3(C)CO)[C@H](O)[C@H]2O[C@@H]2O[C@H](CO)[C@@H](O)[C@H](O)[C@H]2O)[C@H](O)[C@H](O)[C@H]1O` (stereo not given in full): the activity change, negative = inhibition is -2.3% in assay [1]; -13.4% in assay [2]; 2.44% in assay [3]; -24.6% in assay [4]; 0.544% in assay [5].

Take `C=CC(=O)N1CCN(C(=O)c2cc(-c3cc(Cl)ccc3Cl)c(Cl)cc2OC)CC1`: the activity change, negative = inhibition in assay [1] was -67.3%; in assay [2] it was 2.39%; in assay [3], -7.94%; in assay [4] it was -46%; in assay [5], 5.49%.

As for `CCC(C)NC(=O)Cn1nc2n(C(C)C)c(=O)c3ccc(C(=O)NC(C)C)cc3n2c1=O` (stereo not given), the activity change, negative = inhibition in assay [1] was determined as 2.22%; in assay [2], 2.25%; in assay [3], 4.99%; in assay [4] it was 1.36%; in assay [5], 4.93%.

As to `COc1ccc(/C=C/C(=O)O[C@@H]2[C@@H](O)[C@@H](O)[C@H](O[C@@H]3C=C(CO)[C@H]4[C@H](O[C@@H]5O[C@H](CO)[C@@H](O)[C@H](O)[C@H]5O)OC=C[C@H]43)O[C@H]2C)cc1O`, the activity change, negative = inhibition in assay [1] is -0.828%; in assay [2], -5.04%; in assay [3] it was -9.54%; in assay [4], -13.6%; in assay [5] it was -1.46%.

Consider `CC1(C)CCC(C)(C)c2cc(C3(c4ccc(C(=O)O)cc4)OCCO3)ccc21`, for which the activity change, negative = inhibition in assay [1] was 5.55%; in assay [2], -0.117%; in assay [3], 4.89%; in assay [4], -28.6%; in assay [5], 1.43%.

`CC1=NOC2(CCN(Cc3ccc(Cl)cc3)CC2)C1`: the activity change, negative = inhibition in assay [1] was -0.766%; in assay [2], -2%; in assay [3], 0.305%; in assay [4], -4.4%; in assay [5], -0.792%.

In the case of `CCCNC(=O)N1Cc2c(sc3c2CCCC3)-n2cccc2C1C(C)C` (stereo not given), the activity change, negative = inhibition in assay [1] is -9.75%; in assay [2], -0.854%; in assay [3] it was 1.11%; in assay [4] it was -9.78%; in assay [5], -2.26%.

As for `CCCn1c(=O)c2ccc(C(=O)NC3CCCC3)cc2n2c(=O)n(CC(=O)Nc3ccc(C)cc3C)nc12`, the activity change, negative = inhibition came to 3.89% in assay [1]; 2.98% in assay [2]; 6.74% in assay [3]; 0.413% in assay [4]; 0.505% in assay [5].

Consider `C[C@@H]1O[C@@H](OC2C(CO)OC(OCC3OC(OC(=O)[C@]45CCC(C)(C)CC4C4=CCC6[C@@]7(C)CC[C@@H](O)[C@](C)(C(=O)O)C7CC[C@@]6(C)[C@]4(C)CC5)C(O)C(O)C3O)C(O)C2O)[C@H](O)[C@H](O)[C@H]1O` (stereo not given in full), for which the activity change, negative = inhibition in assay [1] was 0.666%; in assay [2] it was 4.42%; in assay [3], 5.14%; in assay [4], -12.7%; in assay [5] it was 0.708%.

`CC(C)Oc1ccc(-c2nc(-c3cccc4c3CCC4NCCC(=O)O)no2)cc1C#N` (stereo not given): the activity change, negative = inhibition was -7.63% in assay [1]; 5.8% in assay [2]; -0.233% in assay [3]; -14.1% in assay [4]; 3.19% in assay [5].

`O=C1NCCC[C@@H]1NC(=O)[C@H]1CN(C(=O)C2CCNCC2)CCN1C(=O)c1cccs1`: the activity change, negative = inhibition in assay [1] was 4.35%; in assay [2] it was -9.5%; in assay [3], -1.38%; in assay [4], -11.1%; in assay [5], -8.06%.

`CCCN1C(=O)c2c(C(=O)NCc3ccccc3F)ncn2CC1(C)C(=O)NCCC(C)C` (stereo not given): the activity change, negative = inhibition is 2.34% in assay [1]; 1.23% in assay [2]; -0.475% in assay [3]; 2.26% in assay [4]; 5.98% in assay [5].

Consider `N#Cc1ccc(S(=O)(=O)N2CCc3c(nc(-c4ccc(F)cc4)[nH]c3=O)C2)cc1`, for which the activity change, negative = inhibition in assay [1] was -0.723%; in assay [2] it was 1.5%; in assay [3], 0.327%; in assay [4] it was 0.148%; in assay [5], 0.312%.

For `Cc1cc2c(cc3n2CC(C)(C(=O)NC2CCCCCC2)N(Cc2cccc(F)c2)C3=O)o1` (stereo not given), the activity change, negative = inhibition is 6.53% in assay [1]; 0% in assay [2]; 9.48% in assay [3]; 1.58% in assay [4]; 3.19% in assay [5].

`COc1ccc(NS(=O)(=O)c2sc3ccc(Cl)cc3c2C)cc1N1CCNCC1`: the activity change, negative = inhibition in assay [1] is -13.5%; in assay [2] it was -6.57%; in assay [3] it was -13.5%; in assay [4], -28.1%; in assay [5], -4.33%.

For `Cn1c(=O)c2ccc(C(=O)NC3CCCCC3)cc2n2c(=O)n(Cc3cccc(Cl)c3)nc12`, the activity change, negative = inhibition in assay [1] amounted to 1.81%; in assay [2] it was 0%; in assay [3] it was 6.78%; in assay [4], 4.85%; in assay [5] it was 3.34%.

With `CCCCN1C(=O)c2cc(C(=O)NCCc3ccccc3)nn2CC1(C)C(=O)NC1CCCC1` (stereo not given), the activity change, negative = inhibition was -0.385% in assay [1]; 0.111% in assay [2]; -14% in assay [3]; -1.34% in assay [4]; 0.484% in assay [5].

With `C=C[C@H]1C(O[C@@H]2O[C@H](CO)[C@@H](O)[C@H](O)[C@H]2O)OC=C2C(=O)N3CCc4c([nH]c5ccccc45)C3CC21` (stereo not given in full), the activity change, negative = inhibition in assay [1] is 0%; in assay [2], 0.396%; in assay [3] it was -2.51%; in assay [4] it was -10.7%; in assay [5], 1.37%.

As for `O=C(COc1ccc(F)cc1)N1CCOc2ccc(N3CCOCC3)cc2C1`, the activity change, negative = inhibition in assay [1] was -2.3%; in assay [2], 0.349%; in assay [3], -1.62%; in assay [4], -2.39%; in assay [5] it was -1.51%.

As for `CCCN1C(=O)c2c(C(=O)NCc3ccccc3F)ncn2CC1(C)C(=O)NC1CCCC1` (stereo not given), the activity change, negative = inhibition in assay [1] is 2.67%; in assay [2], 0.127%; in assay [3], 10%; in assay [4], 2.01%; in assay [5], 11.4%.

As for `O=C(COC(=O)C(Cc1c[nH]c2ccccc12)NC(=O)c1ccc(Br)cc1)c1ccc(Cl)cc1` (stereo not given), the activity change, negative = inhibition in assay [1] amounted to 11.5%; in assay [2] it was 0%; in assay [3], 8.99%; in assay [4] it was 3.18%; in assay [5] it was 3.37%.

As for `COC(=O)c1ncn2c1C(=O)N(Cc1ccc(OC)cc1)C(C)(C(=O)NC1CCCCCC1)C2` (stereo not given), the activity change, negative = inhibition turned out to be 7.87% in assay [1]; 0.291% in assay [2]; 8.83% in assay [3]; 7.84% in assay [4]; 4.79% in assay [5].

Turning to `CCCNC(=O)c1cc2n(n1)CC(C)(C(=O)NC1CCCC1)N(CCC)C2=O` (stereo not given), the activity change, negative = inhibition in assay [1] came to 6.81%; in assay [2], 0%; in assay [3], 6.04%; in assay [4], 5.68%; in assay [5], 3.86%.

Take `CC(CO)C1CCC2(C)CC3C(CO)CC(O)C3C(C)(O)C/C=C/12` (stereo not given): the activity change, negative = inhibition in assay [1] is 5.5%; in assay [2] it was 7.88%; in assay [3] it was 10.2%; in assay [4], -5.58%; in assay [5], 4.25%.

On to `COc1cccc(CCC(=O)NCc2nnc3c(-c4nc(C)no4)cccn23)c1`, for which the activity change, negative = inhibition was -1.6% in assay [1]; -0.997% in assay [2]; -4.59% in assay [3]; -5.64% in assay [4]; 5.88% in assay [5].

In the case of `Cc1c(C(=O)NCc2cccnc2)nn(-c2ccc(Cl)cc2Cl)c1-c1ccc(Cl)cc1`, the activity change, negative = inhibition in assay [1] is -4.01%; in assay [2] it was -19.5%; in assay [3] it was 4.75%; in assay [4] it was -45.6%; in assay [5], -8.69%.

Consider `COc1ccc(CCN2C(=O)c3cc4occc4n3CC2(C)C(=O)NC2CCCCCC2)cc1OC` (stereo not given), for which the activity change, negative = inhibition in assay [1] was 3.85%; in assay [2] it was 13.2%; in assay [3], 7.53%; in assay [4], -43.8%; in assay [5], -13%.

In the case of `COc1ccc(-c2nc(C)nc3c2CCN([S+](=O)([O-])c2cccs2)CC3)cc1`, the activity change, negative = inhibition was -15.9% in assay [1]; -6.29% in assay [2]; -2.57% in assay [3]; -18.8% in assay [4]; -9.72% in assay [5].

Take `Cc1ccc(O[C@H]2CCOC[C@H]2NC(=O)CCc2c(C)noc2C)cn1`: the activity change, negative = inhibition was 1.19% in assay [1]; 3.05% in assay [2]; 2.43% in assay [3]; -1.46% in assay [4]; 17.5% in assay [5].
